Test results published in publication PMC7819943, “Rice protein-binding microarrays: a tool to detect cis-acting elements near promoter regions in rice”.
This is one part of the list.

target: T1, OsWOX13 (Oryza sativa, UniProt Q5QMM3 1-267); assay: protein-binding microarray (RPBM); PBS, 2% BSA, 51.3 ng/ul salmon testes DNA, 50 uM zinc acetate, 200 nM TF, 25 C, 1 h; high values mean tight binding; conditions: protein: recombinant; tags: N-terminal polyhistidine and DsRed monomer fusion (pET32a); label: CyDye5-dUTP incorporated in the synthesized complementary strand; 3' TTTTT single-stranded linker to array surface; dsDNA, one strand shown
T1 sequence: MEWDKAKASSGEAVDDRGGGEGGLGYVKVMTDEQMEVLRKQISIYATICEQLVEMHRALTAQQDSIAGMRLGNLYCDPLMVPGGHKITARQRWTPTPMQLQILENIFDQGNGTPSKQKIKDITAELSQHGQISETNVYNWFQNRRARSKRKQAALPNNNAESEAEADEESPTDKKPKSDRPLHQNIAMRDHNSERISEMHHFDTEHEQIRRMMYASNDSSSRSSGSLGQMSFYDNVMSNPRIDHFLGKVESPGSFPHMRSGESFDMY
How it was run: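 In PBS with 2% BSA, salmon testes DNA and 50 µM zinc acetate, 200 nM protein was incubated on a custom Agilent array at 25 °C for 1 h and then washed off. The array had been made double-stranded by primer extension with Cy5-dUTP and blocked with 2% BSA. The proteins were transcription factors fused N-terminally to polyhistidine and DsRed, expressed in E. coli BL21-CodonPlus and purified on Ni–NTA. The binding signal is per-feature fluorescence intensity (arbitrary units) from an Axon 4000B scanner.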

Sequence	binding signal
GTAGATTGGACAAACAAACATTGGGGCTAGTGTATTAGAACGGAGTCACCTAGTGCAG	23700 fluorescence intensity (a.u.)
ACTAATTGTACAGTTAGGGGAGAAATCGCGAGACGAATTTCGGAGTCACCTAGTGCAG	4980 fluorescence intensity (a.u.)
CAGACTTCAGAACTTGATTGATTATAACTTAGTACTTCATCGGAGTCACCTAGTGCAG	24500 fluorescence intensity (a.u.)
AGTTAACATGATTTATGATAATTTTAATGTAAATGGTATACGGAGTCACCTAGTGCAG	16700 fluorescence intensity (a.u.)
GTGAAATATGATTGTTTGTACTTTCAGATAAGAGAATTGCCGGAGTCACCTAGTGCAG	18000 fluorescence intensity (a.u.)
TGTGACATTATCAAATTATATTTCATGATGAATCTACGTACGGAGTCACCTAGTGCAG	13900 fluorescence intensity (a.u.)
TTAATTGGGATGATAGTGTAAATAGATCTGAACACTTTGACGGAGTCACCTAGTGCAG	15900 fluorescence intensity (a.u.)
TGTTCTTGTCTGTGATTGATAGCTGTATATGTCTCCCGGACGGAGTCACCTAGTGCAG	38000 fluorescence intensity (a.u.)
CTCAATCATCTTCAATCCCCTCTAAACCGAACAAGAACTTCGGAGTCACCTAGTGCAG	11200 fluorescence intensity (a.u.)
GTCAAATTTATGGCATTGATAGAGTTTTAGTAGGGGTGTTCGGAGTCACCTAGTGCAG	21000 fluorescence intensity (a.u.)
TCATTGAGATTGAGAAGACTCTAGTAGAGTACCTAGGTCGCGGAGTCACCTAGTGCAG	8220 fluorescence intensity (a.u.)
ATATATATGTCTAAATTCATTAACATATAAATGAATGTGGCGGAGTCACCTAGTGCAG	3480 fluorescence intensity (a.u.)
CCATCGCGGATTGAATCAAGACGGAATAAGTTCACCTAACCGGAGTCACCTAGTGCAG	7520 fluorescence intensity (a.u.)
TTGTATGAATGAGCTATTAGATTGGCTATAGATGAATTGGCGGAGTCACCTAGTGCAG	8950 fluorescence intensity (a.u.)
GGCCTGTCATCTTCTTCCAATCATCTCATTTCTCTCTTCTCGGAGTCACCTAGTGCAG	11000 fluorescence intensity (a.u.)
GTGCAATCACTGAGAAATCAGCTTACCACTGAGTAATCACCGGAGTCACCTAGTGCAG	13500 fluorescence intensity (a.u.)
TAATTAGTCTATGATTAGCCATAATTGCTACAGTAACCCACGGAGTCACCTAGTGCAG	21800 fluorescence intensity (a.u.)
AAAACTACAAATAATTTGATCAAACTATCACAAAACTACACGGAGTCACCTAGTGCAG	5300 fluorescence intensity (a.u.)
ATAGGATTGAAATACTCTAAAATTCCTGTGTTTTCCTCCACGGAGTCACCTAGTGCAG	10800 fluorescence intensity (a.u.)
TTACACTACGATTGTACTGTAATTACATCTGTCAAATTTTCGGAGTCACCTAGTGCAG	6320 fluorescence intensity (a.u.)
AAACTGATTGTCAGACCGAGAGGGTTAAACAATGTCTGGACGGAGTCACCTAGTGCAG	32600 fluorescence intensity (a.u.)
CTAGCCACTTGGTATAATTGACTGAGTCTTGATAAAGCTTCGGAGTCACCTAGTGCAG	7350 fluorescence intensity (a.u.)
TAGTTTAATCAATTTCAGATATGAAAAGGGTAATTTCAGGCGGAGTCACCTAGTGCAG	5350 fluorescence intensity (a.u.)
